Measured values as given in PMC5753878.
Substitutions are numbered along the chain they refer to. In names and notes the source's numbering stands. These are yes or no findings as the source states them, for the method shown. In cells and extracts the contact can be indirect. Some entries that bind do so weakly or less than the wild type. For some of these results: Tags and fused reporters may be left off the sequences shown. One block for each molecule: values may come before it.

Amino acid sequences for entries named in this document (tags omitted). A change or cut given only in a name is not applied to a line headed by its entry.
UniProt Q06163: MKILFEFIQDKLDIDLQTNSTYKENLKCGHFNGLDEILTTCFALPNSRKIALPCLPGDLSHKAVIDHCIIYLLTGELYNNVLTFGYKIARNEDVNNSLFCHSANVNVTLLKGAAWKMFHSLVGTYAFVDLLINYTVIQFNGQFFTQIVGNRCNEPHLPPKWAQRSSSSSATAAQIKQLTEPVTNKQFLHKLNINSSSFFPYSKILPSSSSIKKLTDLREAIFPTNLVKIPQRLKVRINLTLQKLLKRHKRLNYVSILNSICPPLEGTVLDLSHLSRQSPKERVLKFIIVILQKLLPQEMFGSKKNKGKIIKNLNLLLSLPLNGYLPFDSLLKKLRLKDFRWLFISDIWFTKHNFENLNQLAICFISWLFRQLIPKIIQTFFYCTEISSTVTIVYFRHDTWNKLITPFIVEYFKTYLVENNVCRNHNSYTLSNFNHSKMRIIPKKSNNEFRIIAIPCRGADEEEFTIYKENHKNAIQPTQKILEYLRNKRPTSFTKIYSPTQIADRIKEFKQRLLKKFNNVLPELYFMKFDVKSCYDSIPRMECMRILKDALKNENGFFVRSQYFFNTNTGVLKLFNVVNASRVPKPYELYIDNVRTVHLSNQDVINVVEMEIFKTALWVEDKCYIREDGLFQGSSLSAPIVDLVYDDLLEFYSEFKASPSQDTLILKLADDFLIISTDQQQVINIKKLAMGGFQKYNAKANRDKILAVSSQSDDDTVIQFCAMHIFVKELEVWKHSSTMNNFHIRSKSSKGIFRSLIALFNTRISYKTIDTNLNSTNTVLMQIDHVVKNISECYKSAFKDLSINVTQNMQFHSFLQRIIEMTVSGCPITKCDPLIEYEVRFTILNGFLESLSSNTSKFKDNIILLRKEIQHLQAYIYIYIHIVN
UniProt Q03096: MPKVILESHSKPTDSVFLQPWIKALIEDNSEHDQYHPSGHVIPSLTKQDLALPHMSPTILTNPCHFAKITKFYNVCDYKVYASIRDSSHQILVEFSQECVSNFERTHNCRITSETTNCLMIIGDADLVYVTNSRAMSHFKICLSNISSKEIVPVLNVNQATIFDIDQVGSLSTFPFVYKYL
UniProt P11978: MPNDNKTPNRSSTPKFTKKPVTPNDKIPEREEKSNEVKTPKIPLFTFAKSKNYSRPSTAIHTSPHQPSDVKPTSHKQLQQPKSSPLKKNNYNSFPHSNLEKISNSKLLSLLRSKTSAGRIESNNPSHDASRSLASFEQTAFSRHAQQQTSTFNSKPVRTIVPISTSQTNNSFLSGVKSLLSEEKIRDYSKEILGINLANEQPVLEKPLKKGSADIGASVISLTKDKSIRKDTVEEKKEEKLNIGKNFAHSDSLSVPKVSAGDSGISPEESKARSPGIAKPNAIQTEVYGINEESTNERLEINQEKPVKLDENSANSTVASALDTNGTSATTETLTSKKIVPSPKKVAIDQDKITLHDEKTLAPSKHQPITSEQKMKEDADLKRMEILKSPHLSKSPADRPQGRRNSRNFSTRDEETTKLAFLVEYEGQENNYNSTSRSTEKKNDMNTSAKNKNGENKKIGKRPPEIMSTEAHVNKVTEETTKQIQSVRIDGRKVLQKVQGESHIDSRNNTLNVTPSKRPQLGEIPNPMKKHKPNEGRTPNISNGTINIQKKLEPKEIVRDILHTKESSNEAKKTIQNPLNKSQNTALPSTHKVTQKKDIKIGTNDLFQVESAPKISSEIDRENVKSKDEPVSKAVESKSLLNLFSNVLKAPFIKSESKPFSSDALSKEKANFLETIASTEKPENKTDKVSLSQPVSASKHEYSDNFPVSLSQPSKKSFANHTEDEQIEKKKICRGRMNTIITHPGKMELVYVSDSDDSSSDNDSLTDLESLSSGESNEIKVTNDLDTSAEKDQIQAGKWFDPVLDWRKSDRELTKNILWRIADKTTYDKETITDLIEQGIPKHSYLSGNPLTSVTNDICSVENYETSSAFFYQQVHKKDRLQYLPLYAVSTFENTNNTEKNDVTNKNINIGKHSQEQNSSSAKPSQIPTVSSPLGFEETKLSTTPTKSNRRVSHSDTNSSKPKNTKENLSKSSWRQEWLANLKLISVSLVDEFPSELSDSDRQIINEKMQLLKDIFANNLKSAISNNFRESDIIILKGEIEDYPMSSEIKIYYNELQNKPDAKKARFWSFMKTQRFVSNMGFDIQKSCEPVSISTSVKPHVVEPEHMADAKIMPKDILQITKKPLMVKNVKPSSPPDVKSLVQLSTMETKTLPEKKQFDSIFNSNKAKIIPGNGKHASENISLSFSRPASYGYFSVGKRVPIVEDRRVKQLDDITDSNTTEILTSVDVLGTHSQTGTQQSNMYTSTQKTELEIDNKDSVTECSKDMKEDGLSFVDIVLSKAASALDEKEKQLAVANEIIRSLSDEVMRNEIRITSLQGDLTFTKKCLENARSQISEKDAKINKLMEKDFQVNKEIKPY

How the values were obtained:
[1] = molecular target: telomerase (S. cerevisiae) (UniProt P17214+Q06163+Q03096); test: co-IP; co-IP of telomerase with factors encoded by nonessential genes (Figure S6 in File S1); bait not told
[2] = molecular target: T1, Cdc13 tagged with (FLAG)3 (S. cerevisiae) (UniProt P32797); test: co-IP; anti-FLAG IP of Cdc13 tagged with (FLAG)3 from yeast extracts, Est1 tagged with (myc)12
T1 sequence: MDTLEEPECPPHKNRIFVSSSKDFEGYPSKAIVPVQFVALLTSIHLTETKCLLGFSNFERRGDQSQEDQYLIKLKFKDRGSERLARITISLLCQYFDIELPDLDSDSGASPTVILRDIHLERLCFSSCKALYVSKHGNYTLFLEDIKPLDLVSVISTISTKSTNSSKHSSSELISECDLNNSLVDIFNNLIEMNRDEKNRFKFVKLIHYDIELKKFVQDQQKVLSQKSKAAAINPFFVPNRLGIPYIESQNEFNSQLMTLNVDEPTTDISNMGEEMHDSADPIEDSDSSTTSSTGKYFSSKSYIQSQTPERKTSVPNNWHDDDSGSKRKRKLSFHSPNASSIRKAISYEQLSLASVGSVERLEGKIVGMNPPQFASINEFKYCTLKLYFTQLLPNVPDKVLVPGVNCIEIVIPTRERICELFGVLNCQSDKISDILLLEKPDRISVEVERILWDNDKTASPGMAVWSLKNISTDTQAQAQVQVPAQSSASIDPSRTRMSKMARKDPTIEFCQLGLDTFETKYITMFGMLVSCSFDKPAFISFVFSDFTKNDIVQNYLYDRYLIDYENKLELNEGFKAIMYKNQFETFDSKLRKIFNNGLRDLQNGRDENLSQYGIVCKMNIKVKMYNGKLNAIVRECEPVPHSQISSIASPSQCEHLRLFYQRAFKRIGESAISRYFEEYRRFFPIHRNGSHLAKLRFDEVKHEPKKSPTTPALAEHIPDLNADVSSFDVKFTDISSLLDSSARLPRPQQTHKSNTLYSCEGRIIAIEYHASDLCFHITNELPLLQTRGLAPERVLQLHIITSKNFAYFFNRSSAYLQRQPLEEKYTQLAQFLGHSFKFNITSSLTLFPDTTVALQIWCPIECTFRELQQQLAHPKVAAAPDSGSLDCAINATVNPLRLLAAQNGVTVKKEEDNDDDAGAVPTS

[3] = molecular target: T2, Cdc13-E252K tagged with (FLAG)3 (S. cerevisiae) (UniProt P32797); test: as above
T2 sequence: T1 sequence with E252K

B1: Ebs1 (protein, UniProt Q03466 1-884)
chain: MEPSNTQKEDLPTAFNGIKSQLNSILKSNQLFQDYALLNGFLAFVHSKLNAAILTSIESQCGKSFAADLDSFDQSSISSILDFSWESVHYPIFKWFQMWRNYILFEKENKKQQTKFIDFRKMNSKMLKFFKTVQNFYVNVINTVYKKYDISVLLPKRIIQDLKLSDIENTTNVGDILAVKTFNSSSPLAHLIPTLFHRCLLFLGTAYRYKTLLEEISNKYSISNFKKSLDFFRLASLVLPSAGETYSQAGAIFLQTGNLGIAVFNFVKGMMTKMPSPVSIKNFGALMVDNKSSLNRSLHTTIMNTYLQESKGPRTPAKEILEFYFLGLFGSVWSPTSWRDDTKPNQLNNGIKLRHLENALYETMSARYLNNIKTIFHNLIITIGGFHLLLKRRSDVSAKTLKDLRSNELDYLNFAFKYIAHILNDIVKESWSENPEVSEILGMVRIINCWIKANPMVLQYSQSNLEFVNALAYLINDIVKKKPSPSFSITEHIPKRTYWFEEDLMVKGLSFVNFQLSDFDDYEKILEMDHSLDRLIGNPPLCDKLSASSEMLLRLQAVVNISSQLLQNNNCGVEWSDNKSRYIFNKKIGFKETVKNSMKTSKQSNEKAKLQRKNKPSTTNGSISMADLERQMRSSSLDSFSPTMGYSGSSVPMAPDTFNVKPSGTITGNKVNVELLKIELSGQNADGAITNISPGYSNAAISSSNSTDESSFDLNNILSSMQQKHAEKSFAKSMQGVNEQIPANDVCHQAQRPMQGGLYSSQQPSSMSSLNSAYQNASMPPSASMVSYPYPFLNQQGQGVFPPYNAQNLQWQSEAYSLKSMNFANPTWLGDQYQTSAPSSAYAQAQRQMFQQPMQQDVGKYMQFPFDAQSNTDSMRGNSRNNMF
binding [1]: no binding

B4: Est1-K444E-(myc)12 (protein, UniProt P17214 1-699)
chain: MDNEEVNEECMRLFFKNARAHLDKHLTSRLTCDENAYITFRCFLDGIHRKSTRFLEELLLKQENMYHNNNYERINDSVIPLVLKLLWLQIHEPTLQWFEHWFHDIMRLSNRRKFRVFRIFQKKMIQFFKITHRYYYDIIEHLCAKYDMNSVISNALFAKLNLMQYTDGLSTHEKIILNTSNPLTFSIVISLQRCVINLGSTHFYKTLLNKPSNKPKSVEGFEKSIRYLNIASLYLPAVGDTYFQRAKIYLITGKFSLYFFELVRGALVRIPSKCALNNLKDFILTPDFPERRRLMKKLAILVSKDLKGEKSFFEGQIVLQFLSIVEHTLVPQSWNASRASNCWLLKEHLQMAALKYHSGNINVILENLAATMGSFDLMFTTRKSKEQKNKLKYADLSERQVFFLDLSFDFIANIIDVVIKPSWQKNMEDFRYLAIIRLLMCWIESYRSILQYTHRHRKFCTSFALLLNDLINSPLNCSGNIYSHRPKRSYLFREDIIFREFSCINFALTDFNDDYVYDSPDMINNIIGCPTLTKVLSPKEECVLRIRSIIFSGMKFLEKNDTGVIWNASKYKFDLISPNIKIKRQIALSEISSKINVKTQQERVVSSRKVEAKRDEQQRKRAGKIAVTELEKQFANVRRTKKLSPLPEKDGVSSELVKHAASRGRKTITGPLSSDFLSYPDEAIDADEDITVQVPDTPT
binding [3]: binds

B5: Est1-R485E-(myc)12 (protein, UniProt P17214 1-699)
chain: B4 chain with E444K, R485E
binding [2]: binds

B6: Est1-F511D-(myc)12 (protein, UniProt P17214 1-699)
chain: B4 chain with E444K, F511D
binding [2]: binds

B7: Est1-D510R-(myc)12 (protein, UniProt P17214 1-699)
chain: B4 chain with E444K, D510R
binding [2]: binds

B8: Est1-R488E-(myc)12 (protein, UniProt P17214 1-699)
chain: B4 chain with E444K, R488E
binding [2]: binds

Other lines, results leading:

binding [1]: no binding
Molecule: Sir4 (from UniProt P11978 1-1358)

binding [1]: no binding
B2: Msp3 (protein, UniProt P47069 1-682)
chain: MNNSNEHRREEAGAANEQMPYNKAVKSAYADVLKDKMNREQEISLRAIKKGIYTDGGETDNYDMDKENDSAYEMFKKNLDFPLDQHNDDDDDDPYIEDNGQETDGYSDEDYTDEADKSFIEDSDSDSYDLESNSDFEENLESSGEAKKLKWRTYIFYGGLFFVFYFFGSFLMTTVKNNDLESHSSGATSSPGKSFSNLQKQVNHLYSELSKRDEKHSSELDKTVKIIVSQFEKNIKRLLPSNLVNFENDINSLTKQVETISTSMSELQRRNHKFTVENVTQWQDQLVKQLDTHLPQEIPVVINNSSSLLIIPELHNYLSALISDVIESPGIGTAGSAESRWEYDLNRYVKEILSNELQYIDKDYFIQEMNRRLQSNKQEIWEEITNRLETQQQQQQQQVQQDYSNVPQQYSSILMKRLIHQIYNSNQHQWEDDLDFATYVQGTKLLNHLTSPTWRQGSGVQPIELLTDSKQSSSTYWQCENEPGCSWAIRFKTPLYLTKISYMHGRFTNNLHIMNSAPRLISLYVKLSQTKEIKALQTLANQYGFGQHHKRDRNYIKIAKFEYRLTDSRIRQQMYLPPWFIQLKPLVRSIVFQVDENYGNKKFISLRKFIINGVTPQDLQIIENNEFPVLLGDTPEYGVTQNTDEGKRKVLLSKPPYASSSTSTKFHPASNVPSFGQDELDQ

binding [2]: binds
B3: Est1-W87E-(myc)12 (protein, UniProt P17214 1-699)
chain: B4 chain with W87E, E444K

binding [1]: no binding
B9: Pif1 (protein, UniProt P07271 46-859)
chain: RSNNFIQAQLKHPSILSKEDLDLLSDSDDWEEPDCIQLETEKQEKKIITDIHKEDPVDKKPMRDKNVMNFINKDSPLSWNDMFKPSIIQPPQLISENSFDQSSQKKSRSTGFKNPLRPALKKESSFDELQNNSISQERSLEMINENEKKKMQFGEKIAVLTQRPSFTELQNDQDDSNLNPHNGVKVKIPICLSKEQESIIKLAENGHNIFYTGSAGTGKSILLREMIKVLKGIYGRENVAVTASTGLAACNIGGITIHSFAGIGLGKGDADKLYKKVRRSRKHLRRWENIGALVVDEISMLDAELLDKLDFIARKIRKNHQPFGGIQLIFCGDFFQLPPVSKDPNRPTKFAFESKAWKEGVKMTIMLQKVFRQRGDVKFIDMLNRMRLGNIDDETEREFKKLSRPLPDDEIIPAELYSTRMEVERANNSRLSKLPGQVHIFNAIDGGALEDEELKERLLQNFLAPKELHLKVGAQVMMVKNLDATLVNGSLGKVIEFMDPETYFCYEALTNDPSMPPEKLETWAENPSKLKAAMEREQSDGEESAVASRKSSVKEGFAKSDIGEPVSPLDSSVFDFMKRVKTDDEVVLENIKRKEQLMQTIHQNSAGKRRLPLVRFKASDMSTRMVLVEPEDWAIEDENEKPLVSRVQLPLMLAWSLSIHKSQGQTLPKVKVDLRRVFEKGQAYVALSRAVSREGLQVLNFDRTRIKAHQKVIDFYLTLSSAESAYKQLEADEQVKKRKLDYAPGPKYKAKSKSKSNSPAPISATTQSNNGIAAMLQRHSRKRFQLKKESNSNQVHSLVSDEPRGQDTEDHILE
